These results are taken from the RNAGym collection of RNA variant scans (doi:10.7554/elife.90254).

Read counts are not given, so values of variants with three or more changes are uncertain.

Sequences and labels used below:
B1: LINE1-mini (parent)
chain: GGCAGAGCUCAACACAGCGUGGCAAAGUGGCUGUGGCUAGACUGCC

In this data set the parent is B1. The data set can be described thus: self-cleavage, relative activity (ratio to wild type); higher = more cleavage; in vitro, sequencing; the parent is a self-cleaving ribozyme.
UGCAGAGCUCAACACAGCGUGGCAAACUGGCUGUGGCUAUACUGCC [G1U G27C G40U]: the self-cleavage was found to be 0.03.
The figure for UGCAGAGCACAACACAGCGUGGCAAAGUGGCUGUGGUUAGACGGCC [G1U U9A C37U U43G] is 0.13; for UGCAGAGCUCAACACAGCGUGGCAAAGUGGCUCAUGCUAGACUGUC [G1U G33C U34A G35U C45U] it is 0; for UGCAGAGCUCAACACAGCGUGGCAAAGAGGCGGUGGCUAGACUGCC [G1U U28A U32G] it is 0.04.
The figure for UGCAGAGCUCAACACAGCGUGGCAAAGGGGCUAUGGCUAGACUGCC [G1U U28G G33A] is 0; for UGCAGAGCUCAACACAGCGUGUUAAAGUGGCUGUGGCUAGACUGCC [G1U G22U C23U] it is 0.73; for UGCAGAGCACAACACAGCGUGGCAAAGUGGAUGUGGCUAGACUGCC [G1U U9A C31A] it is 0.01.
The figure for UGCAGAGCUCAACACAUCGUGGCCAAGUGGCUGUGGCCAGACUGCC [G1U G17U A24C U38C] is 0.01; for UGCAGAGCUCAACACAGCGUGGCAAAGUACCUGUGGCUAGACUGCC [G1U G29A G30C] it is 0.08.
For UGCAGAGCUCAACACAUCGUGUCAAAGCGGCUGUGGCUAGACUGCC [G1U G17U G22U U28C], the self-cleavage was determined as 0.04.
As for UGCAGAGCUCAACACAGCGUGGCAAAGCGGCUGUGGCUAUACUGCC [G1U U28C G40U], the figure is 0.07; as for UGCAGAGCUCAACACAGCGAGGCAAAGUGGCUGUGCCUAGACCACC [G1U U20A G36C U43C G44A], 0; as for UGCAGAGCUCAACACAGCGUGGCAAAGUGGCUCUGGCUCCACUUCC [G1U G33C A39C G40C G44U], 0.01.
The figure for UGCAGAGCUCAACACAGCAUGGCAAAGUGGCAGUGGCUAUACUGCC [G1U G19A U32A G40U] is 0.03; for UGCAGAGCUCAACACAGCGUGGCAAAGUGGCUGUUGCUACACUGCC [G1U G35U G40C] it is 0.08.
In the case of UGCAGAGCUCAACACAGCGCGGCAAAGUGGCAGUGGCUAGACUGCC [G1U U20C U32A], the self-cleavage worked out at 0.06.
As to UGCAGAGCUCAACACAUCGUGUCAAAGUGGCUGUGGCUAGACUGCC [G1U G17U G22U], the self-cleavage was 0.03.
As for UGCAGAGCUCAACACAGCGGGGCAAAGUGACUGUGGCUAGACUGCC [G1U U20G G30A], the figure is 0.06; as for UGCAGAGCCAAACACAGCGUGGCAAAGUGGCUGUGGCUAGACUGCC [G1U U9C C10A], 0.03.
As for UGCAGAGCUCAACACAGCGUGGCAAAGUGUCUGUGGCUAGCCUGCC [G1U G30U A41C], the figure is 0.01; as for UGCAGAGCACAACACAGCGUGGCAAAGUGGCUGUUGCUAGACUGCC [G1U U9A G35U], 0.
The figure for UGCAGAGCUCAACACAGCGUGGCAAAUUGGCUCUGGCUAGAAUGCC [G1U G27U G33C C42A] is 0.02.
As to UGCAGAGCUCAACACAGCGUCGCAACGUGGCUGUCGGUAGAGUGCC [G1U G21C A26C G35C C37G C42G], the self-cleavage came out at 0.01.
UGCAGAGCUCAACACAGCGUAGCAAAGUAGCUGUGGCUAGACUGCC [G1U G21A G29A]: the self-cleavage was 0.47.
As for UGCAGAGCACAACACAGCUUGGCAAAGUGGCUGUGGCUAGAUUGGC [G1U U9A G19U C42U C45G], the figure is 0.07.
In the case of UGCAGAGCUCAACACAGCGUGGCAAACCGUCUGUGGCUAGACUGCC [G1U G27C U28C G30U], the self-cleavage was found to be 0.04.
As for UGCAGAGCUCAACACAGCGUCGCAAAGUGGGUGUGGCUAGACUGCC [G1U G21C C31G], the figure is 0.05; as for UGCAGAGCUCAACACAGCCUGGCAAAGGGGCUGUGGGCAGAUUGCC [G1U G19C U28G C37G U38C C42U], 0.01; as for UGCAGAGCUCAACACACCGUGGCAAAGUGUCUGUGGCUAGACUGCC [G1U G17C G30U], 0.03.
Take UGCAGAGCGCAUCACAGCGUGGCAAAGUGGCUGUGGCCAGAUUGCC [G1U U9G A12U U38C C42U]: the self-cleavage was determined as 0.
Consider UGCAGAGCUCAACACAGCGCGGCAUAGUGGCUGUGGCUAGUCUGCC [G1U U20C A25U A41U], for which the self-cleavage came out at 0.34.
On to UGCAGAGCUCAACACAGCGUUGCAAAGUGACUGUGGCUGUACUGCC [G1U G21U G30A A39G G40U], for which the self-cleavage came out at 0.06.
As for UGCAGAGCUCAACACAGCAUGGCAAAGUGGCUGAGGCUAGACUGCC [G1U G19A U34A], the figure is 0.18; as for UGCAGAGCUCAACACAGCCUGGCAAAGUAGCUAUGGCUAGAGCCCC [G1U G19C G29A G33A C42G U43C G44C], 0.
The figure for UGCAGAGCGCAAGACAGCGUGGCAAUCUGGCUGUGGCUUGACUGCC [G1U U9G C13G A26U G27C A39U] is 0.02; for UGCAGAGCUCAACACAGCGUGGCAAACUGGCUGUCGCGAGACUGCC [G1U G27C G35C U38G] it is 0.03; for UGCAGAGCUCAACACAGCGUAGCAAAGUGGCUGUGGCUAGACUUCU [G1U G21A G44U C46U] it is 1.2.
As for UGCAGAGCUCAACACAGCGUGGCAAAGUGCCUGUGGCUAGACUGCA [G1U G30C C46A], the figure is 1.33; as for UGCAGAGCUCAACACACCGUGGCAAAGCGGCUGUGGCUAGACUGCC [G1U G17C U28C], 0.12.
In the case of UGCAGAGCUCAACACAGCGUGGCAAAGUGGCUGUUGCUCGACUGCC [G1U G35U A39C], the self-cleavage came to 0.1.
The figure for UGCAGAGCUCAACACAGCGUGGCAAAGUGGCUGUGUCUACACUGCC [G1U G36U G40C] is 0.04.
The figure for UGCAGAGCUCAACACAGCGAGGCAAAGUUGCUCAGGCUAGACCGCC [G1U U20A G29U G33C U34A U43C] is 0.01; for UGCAGAGCCCAACACAGCAUGGCACUGUGGCUUUGGCUAGACUGUC [G1U U9C G19A A25C A26U G33U C45U] it is 0.04.
The figure for UGCAGAGCUCAACACAGCGUAGCAAAGUCGCUGUGGCUAGACUUCC [G1U G21A G29C G44U] is 0.19.
Turning to UGCAGAGCUCAACACAACAUGCCAAAGUGGCUGUGGCUAGACUGCC [G1U G17A G19A G22C], the self-cleavage was 0.23.
The figure for UGCAGAGCUCAACACAGCGUGUCAAAGUGGCUGUGGCUAGACUGCA [G1U G22U C46A] is 2.7; for UGCAGAGCUCAACACACCGUGGCAAAGUGGUUGUGGCUAGACUGCC [G1U G17C C31U] it is 0.04; for UGCAGAGCUCAACACAGCGUGGCAAAGUGACUUUGGCUAGACUGAC [G1U G30A G33U C45A] it is 0.11.
Regarding UGCAGAGCUCAACACAGCAUGUCAAAGUGGCCGUGGCUAGACUGCC [G1U G19A G22U U32C], the self-cleavage came to 0.11.
The figure for UGCAGAGCUCAACACAGCGUGGCAAAUUGGCUGUGCCCAGACAGCC [G1U G27U G36C U38C U43A] is 0.04; for UGCAGAGCUCAACACAGCGUGCCAAAGUGGCUGUGGCUAGAUUGCC [G1U G22C C42U] it is 0.07; for UGCAGAGCGCAACCCAGCGUGGCAAAGCCGCUGGGGCUAGACUGCA [G1U U9G A14C U28C G29C U34G C46A] it is 0.
Take UGCAGAGCUCAACACAUCGUGGCAAAGUGGCUGUGGUUAGACUGCC [G1U G17U C37U]: the self-cleavage turned out to be 0.05.
With UGCAGAGCGCAAUACAGCGUGGUAAAGUGGCUGUGGCGAGACUGCC [G1U U9G C13U C23U U38G], the self-cleavage was found to be 0.01.
UGCAGAGCUCAACACAGCGUGGCAAAAUGGCUGAGGCUUGACUUCC [G1U G27A U34A A39U G44U]: the self-cleavage worked out at 0.02.
As for UGCAGAGCUCAACACAGCGUUGCAAACUGGCUGUGGCUAGACUGCC [G1U G21U G27C], the figure is 0.18.
